Results from PMC3868573.
Results are given in words; binding and its absence hold for the method and conditions named. Binding seen in cells or lysates may run through a third protein. Some entries that bind do so weakly or less than the wild type.

The chains behind the UniProt entries cited, without tags or fusion partners. Where a name states a change or a piece, a line headed by the entry shows the natural chain unless it says otherwise. A line that says so, or that is headed by a name, gives the form on record, which may keep a tag or linker.
UniProt Q9HC16: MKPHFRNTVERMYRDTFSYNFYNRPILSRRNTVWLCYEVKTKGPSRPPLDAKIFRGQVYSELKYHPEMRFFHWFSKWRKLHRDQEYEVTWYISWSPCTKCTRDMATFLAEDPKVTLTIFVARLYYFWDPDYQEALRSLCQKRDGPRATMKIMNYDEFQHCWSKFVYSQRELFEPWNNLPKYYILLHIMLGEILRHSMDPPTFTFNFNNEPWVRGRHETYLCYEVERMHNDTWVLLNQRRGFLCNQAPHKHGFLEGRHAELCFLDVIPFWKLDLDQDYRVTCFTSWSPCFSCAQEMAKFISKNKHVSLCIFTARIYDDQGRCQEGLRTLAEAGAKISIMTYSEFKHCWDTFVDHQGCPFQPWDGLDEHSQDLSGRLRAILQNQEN
hA3G-4G(124–127)-HA (Q9HC16, form named): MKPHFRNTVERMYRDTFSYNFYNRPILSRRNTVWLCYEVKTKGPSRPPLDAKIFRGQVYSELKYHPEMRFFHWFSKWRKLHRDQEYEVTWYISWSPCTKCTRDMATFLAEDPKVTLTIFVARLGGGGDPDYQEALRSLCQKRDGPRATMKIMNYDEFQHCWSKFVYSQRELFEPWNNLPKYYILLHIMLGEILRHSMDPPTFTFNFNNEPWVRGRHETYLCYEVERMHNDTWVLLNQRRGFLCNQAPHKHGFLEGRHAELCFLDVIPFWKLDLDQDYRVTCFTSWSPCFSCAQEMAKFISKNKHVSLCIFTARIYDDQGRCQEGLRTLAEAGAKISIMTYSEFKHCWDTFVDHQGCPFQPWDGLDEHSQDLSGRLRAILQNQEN
hA3G-5G(24–28)-HA (Q9HC16, form named): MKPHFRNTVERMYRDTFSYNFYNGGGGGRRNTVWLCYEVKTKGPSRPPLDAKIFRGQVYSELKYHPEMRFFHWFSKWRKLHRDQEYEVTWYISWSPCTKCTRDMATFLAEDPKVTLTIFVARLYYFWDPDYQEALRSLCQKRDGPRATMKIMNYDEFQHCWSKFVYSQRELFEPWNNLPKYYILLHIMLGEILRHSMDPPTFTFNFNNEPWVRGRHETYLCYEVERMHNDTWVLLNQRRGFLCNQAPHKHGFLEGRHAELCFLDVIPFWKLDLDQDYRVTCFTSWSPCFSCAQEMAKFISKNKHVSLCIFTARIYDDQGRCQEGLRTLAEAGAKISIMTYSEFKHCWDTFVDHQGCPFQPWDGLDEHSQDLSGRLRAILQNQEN
hA3G-C97/100A-HA (Q9HC16, form named): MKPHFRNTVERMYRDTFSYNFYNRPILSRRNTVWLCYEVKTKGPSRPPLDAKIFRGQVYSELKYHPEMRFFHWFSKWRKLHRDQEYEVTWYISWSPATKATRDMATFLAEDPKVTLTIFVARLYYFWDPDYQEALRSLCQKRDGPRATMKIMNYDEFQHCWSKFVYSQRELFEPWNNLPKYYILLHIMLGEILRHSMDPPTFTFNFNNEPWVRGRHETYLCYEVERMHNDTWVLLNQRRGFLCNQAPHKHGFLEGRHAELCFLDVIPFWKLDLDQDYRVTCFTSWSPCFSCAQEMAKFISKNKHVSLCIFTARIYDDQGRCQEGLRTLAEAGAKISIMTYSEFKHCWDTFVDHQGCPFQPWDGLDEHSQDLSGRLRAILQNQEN

These substances were tested against myc-tagged wild-type human APOBEC3G (human) (UniProt Q9HC16) (assay: co-IP; 293T cells co-transfected with HA-tagged wild-type or mutant hA3G and hA3G-myc; lysed after 48 h in RIPA buffer (50 mM Tris-HCl pH 7.4, 150 mM NaCl, 1% NP-40, 0.5% sodium deoxycholate, 0.1% SDS); anti-myc affinity gel 1 h at 4°C; blot with anti-HA; wild-type immune complexes also with or without 25 U RNase A).

Substance | binding
hA3G-4G(124–127)-HA (from UniProt Q9HC16 1-384) | no binding
hA3G-5G(24–28)-HA (from UniProt Q9HC16 1-384) | no binding
hA3G-C97/100A-HA (from UniProt Q9HC16 1-384) | no binding
hA3G-E259Q-HA (from UniProt Q9HC16 1-384) | binds
hA3G-NΔ30-HA (from UniProt Q9HC16 31-384) (domain or fragment) | no binding
hA3G-NΔ60-HA (from UniProt Q9HC16 61-384) (domain or fragment) | no binding
hA3G-NΔ90-HA (from UniProt Q9HC16 91-384) (domain or fragment) | no binding
hA3G-NΔ120-HA (from UniProt Q9HC16 121-384) (domain or fragment) | no binding
hA3G-NΔ150-HA (from UniProt Q9HC16 151-384) (domain or fragment) | no binding
hA3G-R24G-HA (from UniProt Q9HC16 1-384) | binds
hA3G-Y125G-HA (from UniProt Q9HC16 1-384) | binds
